± gives the standard deviation of the averaged measurements. The full ranking holds about 33,000 sequences; the median of “E-score (dimensionless, -0.5 to 0.5)” is about -0.049, and the highest 2% start at about 0.37. Some of the results follow.
tested on: T1, PmTbr T-box DNA-binding domain (GST fusion); test: PBM E-score of 8-mer (E-score (dimensionless, -0.5 to 0.5)); Tbr is Tbrain of the sea star Patiria miniata (Pm) or the sea urchin Strongylocentrotus purpuratus (Sp); higher = stronger binding preference; most listed sequences are background and not binding sites; conditions: the construct has about 5 more residues each side
T1 sequence: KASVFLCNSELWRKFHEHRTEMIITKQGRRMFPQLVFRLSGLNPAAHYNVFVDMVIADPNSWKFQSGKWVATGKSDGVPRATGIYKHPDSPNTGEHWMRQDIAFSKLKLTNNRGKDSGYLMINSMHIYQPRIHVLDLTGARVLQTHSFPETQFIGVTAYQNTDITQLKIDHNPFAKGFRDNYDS
Outline: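 GST-fused Tbr T-box DNA-binding domains (the whole T-box plus about five flanking residues) were expressed in BL21 E. coli at 20 °C and purified by glutathione affinity chromatography. Universal Agilent oligonucleotide arrays were made double-stranded by primer extension, incubated with 200 nM protein in PBS (pH 7.5), then scanned and quantified. Every ungapped 8-mer was scored from probe intensities. The Universal PBM Analysis Suite gave each word an enrichment E-score, averaged over duplicate arrays.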

| Sequence | PBM E-score of 8-mer |
| --- | --- |
| GTTTTATA | -0.196 ± 0.11 |
| ACGATTCT | -0.106 ± 0.044 |
| ACAAAACC | -0.058 ± 0.084 |
| GACAGATC | 0.0314 ± 0.067 |
| CATTTATC | -0.0581 ± 0.028 |
| AACTCCCT | -0.271 ± 0.044 |
| AAGCGGAG | -0.167 ± 0.00073 |
| CTCCGTAA | -0.0659 ± 0.014 |
| CGCGACAG | 0.308 ± 0.014 |
| CGCACAGA | -0.108 ± 0.087 |
| CCCATCTC | 0.0496 ± 0.033 |
| TGAACTAA | -0.00296 ± 0.034 |
| AATGTACC | -0.0569 ± 0.04 |
| CCTACTCA | 0.0538 ± 0.0061 |
| CGTTTCCC | 0.0672 ± 0.036 |
| CTCGAGAG | -0.142 ± 0.038 |
| GGATAACC | -0.0815 ± 0.037 |
| AAGTTATC | 0.145 ± 0.054 |
| GACCTGAC | -0.0852 ± 0.017 |
| ACAGTGAA | 0.189 ± 0.0048 |
| AGAGGGCG | -0.00487 ± 0.023 |
| GTAGGAGA | -0.233 ± 0.049 |
| AAAGACAG | -0.273 ± 0.036 |
| CCCAGTAG | -0.0881 ± 0.041 |
| GGCATAAA | -0.09299 ± 0.00013 |

| Sequence | PBM E-score of 8-mer |
| --- | --- |
| GAGGCCCA | -0.282 ± 0.024 |
| AGCCCCTA | -0.0994 ± 0.03 |
| GAGATCGC | 0.203 ± 0.056 |
| ACGGTGAG | 0.12 ± 0.014 |
| CCATGGTA | -0.141 ± 0.089 |
| CATCCTGA | 0.0899 ± 0.0052 |
| CCCCCAAA | -0.323 ± 0.037 |
| CCTCTGAG | 0.0864 ± 0.024 |
| TACCGCAA | 0.0187 ± 0.013 |
| ACACGTTG | 0.374 ± 0.0049 |
| ACATCCCC | 0.118 ± 0.0023 |
| AGAAACGA | -0.00754 ± 0.048 |
| ATGCCCCG | -0.146 ± 0.048 |
| CCTAAAGA | -0.0329 ± 0.051 |
| AGTGGCTA | -0.118 ± 0.042 |
| ACGAACAC | 0.142 ± 0.025 |
| TGGAAACA | -0.0822 ± 0.044 |
| GAGATTCA | -0.126 ± 0.041 |
| GTAATCGA | -0.00964 ± 0.098 |
| TATTATCA | 0.119 ± 0.11 |
| CAATGACG | 0.0903 ± 0.026 |
| AGGCCTTA | -0.101 ± 0.098 |
| ATGTAAGC | -0.0351 ± 0.048 |
| TCTAATCA | -0.0644 ± 0.02 |
| CATGCTTA | 0.0523 ± 0.089 |

| Sequence | PBM E-score of 8-mer |
| --- | --- |
| CTACGTAG | -0.146 ± 0.037 |
| AAGCGTCT | -0.0765 ± 0.076 |
| GGATTTTA | -0.15 ± 0.02 |
| AAATCCTG | -0.069 ± 0.025 |
| CACCGTAC | 0.224 ± 0.0088 |
| CGGAACTC | -0.14 ± 0.02 |
| ACTATCAA | 0.0759 ± 0.064 |
| CCAGCCGA | 0.0561 ± 0.0056 |
| ACAAGCGG | -0.0757 ± 0.038 |
| ATGAGAAC | -0.0696 ± 0.046 |
| ATCATGAC | -0.0392 ± 0.062 |
| AATAGACC | -0.3328 ± 0.0021 |
| ACCGTAAT | -0.24 ± 0.036 |
| GATGTCAC | 0.304 ± 0.0034 |
| AAGATCTT | -0.056 ± 0.015 |
| CGGCGTCA | 0.219 ± 0.03 |
| CTTTTTAA | -0.0553 ± 0.088 |
| CTCTGCAG | -0.079 ± 0.017 |
| CAACTATG | -0.00808 ± 0.0084 |
| CGATTTCA | 0.0761 ± 0.02 |
| CAGGACTA | -0.14 ± 0.02 |
| CCCTTGAC | -0.0492 ± 0.044 |
| CTCGTTTA | -0.262 ± 0.018 |
| CGTTTCCA | -0.0174 ± 0.099 |
| TAAGCGGA | -0.021 ± 0.11 |

| Sequence | PBM E-score of 8-mer |
| --- | --- |
| CGTTAGCC | -0.0289 ± 0.004 |
| CAGAACTA | -0.274 ± 0.028 |
| CCCAACCC | -0.22 ± 0.05 |
| ACGCCACT | 0.255 ± 0.022 |
| ATCCAATA | -0.193 ± 0.025 |
| AGCTACCG | -0.0389 ± 0.0068 |
| AGTGTACG | 0.061 ± 0.021 |
| CCGTTCTC | 0.0823 ± 0.076 |
| AAATAGGA | -0.294 ± 0.053 |
| AACTGCTG | 0.0905 ± 0.049 |
| AGAGGGTA | -0.108 ± 0.023 |
| CGCAGCCG | 0.00728 ± 0.07 |
| CACTGACG | 0.217 ± 0.0037 |
| GATAATTA | 0.188 ± 0.055 |
| CGCTCAAA | -0.11 ± 0.051 |
| CCCCGGAG | -0.271 ± 0.012 |
| GTCACAAA | 0.118 ± 0.066 |
| AATTCTCT | -0.257 ± 0.028 |
| CAGTTTGA | 0.00953 ± 0.039 |
| GCCGCTCC | -0.126 ± 0.16 |
| ACACCTGT | 0.472 ± 0.00061 |
| CGCTGCAA | -0.0364 ± 0.051 |
| AAGGCGCT | 0.276 ± 0.02 |
| TATAAACA | 0.0334 ± 0.0092 |
| CGCTGACG | 0.0787 ± 0.071 |

| Sequence | PBM E-score of 8-mer |
| --- | --- |
| TATGTGCA | -0.00413 ± 0.051 |
| ACGAAACA | 0.00608 ± 0.065 |
| GTCTCCGA | -0.174 ± 0.018 |
| ACTGGCCA | 0.0259 ± 0.067 |
| AAATTAAA | -0.276 ± 0.056 |
| AATCTGCC | -0.117 ± 0.045 |
| GTCTGCCA | -0.0444 ± 0.023 |
| GTACCCTA | -0.0403 ± 0.012 |
| AACGTCTT | -0.0896 ± 0.0054 |
| GCATCAGA | -0.356 ± 0.029 |
| CGTTTAAC | 0.0371 ± 0.016 |
| ACTAAACT | -0.221 ± 0.1 |
| AATTGGCT | -0.124 ± 0.023 |
| ATGACAAA | -0.0227 ± 0.073 |
| CGAGCTAG | 0.0843 ± 0.042 |
| AAGCCACC | -0.103 ± 0.0082 |
| CCTGAGAG | 0.208 ± 0.03 |
| ACCCGTTC | 0.0894 ± 0.035 |
| AACCGCAT | -0.147 ± 0.042 |
| ATCGCGAC | 0.26 ± 0.021 |
| AGTTCGCA | 0.378 ± 0.0033 |
| CCCAACGG | -0.0163 ± 0.021 |
| ATCTAACC | -0.17 ± 0.028 |
| AGAGGACA | -0.0292 ± 0.078 |
| CGAAGGCG | 0.324 ± 0.0055 |

| Sequence | PBM E-score of 8-mer |
| --- | --- |
| GTGTCATA | 0.4057 ± 0.0013 |
| GACAGGCC | -0.0954 ± 0.051 |
| CGAAAGGC | -0.0574 ± 0.022 |
| GCGGCAGA | -0.0652 ± 0.011 |
| AAAATTGA | -0.043 ± 0.071 |
| AGTTTGCC | -0.0426 ± 0.13 |
| CTACTGTA | -0.155 ± 0.044 |
| TGGTCTAA | 0.00383 ± 0.037 |
| CCCTACCA | -0.0735 ± 0.011 |
| CGCCGGTC | -0.0418 ± 0.029 |
| CCGAGCCC | -0.159 ± 0.01 |
| ATAGTTAA | 0.114 ± 0.035 |
| GACAGCTC | 0.263 ± 0.026 |
| GTTGAGCA | -0.115 ± 0.024 |
| GAAAGGAC | -0.121 ± 0.062 |
| GATTGTGA | 0.0805 ± 0.0052 |
| CGAAGCGC | 0.0656 ± 0.031 |
| TACTCTCA | 0.0232 ± 0.011 |
| GGGACATA | -0.105 ± 0.011 |
| ATCTCATG | -0.0216 ± 0.0023 |
| CCTTGTCG | 0.131 ± 0.0024 |
| AGGGCTCC | -0.366 ± 0.024 |
| AACTCAAG | -0.109 ± 0.043 |
| CGAAAGCG | 0.0964 ± 0.029 |
| AGTTGGTA | -0.0311 ± 0.073 |

| Sequence | PBM E-score of 8-mer |
| --- | --- |
| ACTTGGCG | 0.228 ± 0.025 |
| GCGACCCC | 0.0884 ± 0.043 |
| AAGAATAG | 0.164 ± 0.073 |
| AATGGAAC | -0.0221 ± 0.039 |
| ACCAGAGC | -0.278 ± 0.066 |
| AAGGAGCT | -0.178 ± 0.079 |
| CTACATGC | -0.113 ± 0.025 |
| GTCGTATA | -0.103 ± 0.029 |
| ATCTGGCA | 0.0799 ± 0.025 |
| CCAGACGA | 0.00635 ± 0.05 |
| ACGGCAAG | -0.0132 ± 0.021 |
| ACTTGGAA | -0.1519 ± 0.00037 |
| AATGCCAC | 0.102 ± 0.039 |
| AACAGACG | -0.113 ± 0.01 |
| AAACTTCG | 0.00852 ± 0.068 |
| GCAAAGAC | 0.0671 ± 0.01 |
| ACATCGGC | 0.0575 ± 0.012 |
| GCATTCAC | 0.106 ± 0.022 |
| ACAATAGT | 0.00901 ± 0.0018 |
| AAGAATAA | -0.181 ± 0.091 |
| CATCGGAG | -0.268 ± 0.058 |
| CTGATCAA | -0.0385 ± 0.048 |
